Assay results published in the supplement of paper PMC12645437, “Orthogonal IMiD-Degron Pairs Induce Selective Protein Degradation in Cells” (ACS Chemical Biology, 2025).
The other results are listed elsewhere or left out.

target: no compound (DMSO); assay: log2 fold change of degron read counts, EGFP-low vs EGFP+ sorted cells; higher = lower degron-EGFP level without compound (poor expression or instability); conditions: compound: DMSO control; 18 h
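Further: jurkat cells carrying a lentiviral library of mutant zinc finger degrons fused to EGFP plus mCherry, mCherry+ cells FACS sorted, degron abundance counted by next-generation sequencing.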

Sequence	log2 fold change of degron read counts
FKCNQCGRMFTQKGNLLRHIKL	-0.487
FGCNVCGASFTQKGNLLRHIKL	-1.52
FWCEVCGAHFTQKGNLLRHIKL	-0.475
FQCPVCGAAFTQKGNLLRHIKL	-0.0157
FTCPICGADFTQKGNLLRHIKL	-0.755
FFCEVCGAFFTQKGNLLRHIKL	-0.242
LKCEICGFKCTQKGNLLRHIKL	-0.342
FQCEVCGAEFTQKGNLLRHIKL	-2.26
FACNQCGRTFTQKGNLLRHIKL	-0.584
FRCDQCGANFTQKGNLLRHIKL	-1.4
FRCDQCGAVFTQKGNLLRHIKL	-2.25
LLCPICGFWCTQKGNLLRHIKL	2.11
LICNQCGFRCTQKGNLLRHIKL	1.16
FVCEVCGATFTQKGNLLRHIKL	-1.89
FYCEICGAEFTQKGNLLRHIKL	-2.36
FMCNQCGHHFTQKGNLLRHIKL	-0.366
FNCNQCGARFTQKGNLLRHIKL	0.012
FFCEICGHTFTQKGNLLRHIKL	-0.924
FYCEICGREFTQKGNLLRHIKL	-1.52
FQCNVCGAMFTQKGNLLRHIKL	-1.27
FDCDICGAEFTQKGNLLRHIKL	-1.76
FDCDICGAWFTQKGNLLRHIKL	0.479
FYCPVCGATFTQKGNLLRHIKL	-0.243
FFCEQCGALFTQKGNLLRHIKL	-0.0261
FYCPICGRCFTQKGNLLRHIKL	-3.25

Sequence	log2 fold change of degron read counts
LYCPICGFHCTQKGNLLRHIKL	0.751
FNCNQCGRIFTQKGNLLRHIKL	0.26
FDCDICGATFTQKGNLLRHIKL	-1.38
FSCDQCGADFTQKGNLLRHIKL	-2.43
FDCNVCGAWFTQKGNLLRHIKL	0.469
LRCPICGFWCTQKGNLLRHIKL	2.24
LFCNQCGFTCTQKGNLLRHIKL	0.993
FTCEICGAVFTQKGNLLRHIKL	-1.83
FYCPICGRIFTQKGNLLRHIKL	-0.586
FHCDVCGACFTQKGNLLRHIKL	-1.55
FDCEICGAWFTQKGNLLRHIKL	0.354
FLCPICGAEFTQKGNLLRHIKL	-1.12
FWCPQCGASFTQKGNLLRHIKL	0.173
FSCEICGRGFTQKGNLLRHIKL	-1.42
FNCNQCGAEFTQKGNLLRHIKL	-1.65
LYCNQCGFSCTQKGNLLRHIKL	0.412
FVCNVCGATFTQKGNLLRHIKL	-0.456
FECSVCGHPFTQKGNLLRHIKL	-1.06
LACNQCGFSCTQKGNLLRHIKL	0.168
FDCDVCGAIFTQKGNLLRHIKL	0.235
FSCEVCGAHFTQKGNLLRHIKL	-0.886
LWCEICGFVCTQKGNLLRHIKL	1.8
FWCNVCGAFFTQKGNLLRHIKL	1.44
FTCPVCGATFTQKGNLLRHIKL	-0.571
FCCSVCGHVFTQKGNLLRHIKL	0.31
